# ± gives the standard deviation of the averaged measurements. The list shows a part of the results.
# System: PfAP2-LT AP2 domain (GST-tagged)
# Experiment: gcPBM binding intensity (ln(normalized median fluorescence intensity)); higher = stronger DNA binding
# How it was run: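 Binding intensity values are the highest Masliner-normalised natural-log median intensity among replicate spots of either probe orientation. The binding step lasted 1 h in 1× PBS with 1% milk, 0.2 mg/ml BSA, 0.5% salmon testes DNA and 0.03% Triton X-100, using GST-tagged P. falciparum DNA-binding domains expressed in E. coli on an Agilent 4 × 180k array of primer-extended double-stranded 36-bp intergenic genomic probes plus negative controls. Alexa488 anti-GST antibody and a 488 nm scan detected bound protein.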
row,Sequence,gcPBM binding intensity (ln)
1,GGTGGGGAGGAGTAATGTACAAATTAACATATTATG [XGTACX_site6666],9.25 ± 0.13
2,CAAAACAAAACGTATGCACACAATTAAAATATTAAA [CACACA_site5815],9.09 ± 0.4
3,AAATGTTGAGCAGTACAAAAAAAAAAAAAAAAAAAA [GTGCAC_negctrl_site518],8.55 ± 0.55
4,CATTTATATAAAAGAACACACATATAAAATATTATT [CACACA_site3601],8.82 ± 0.43
5,TTTTTTTTTTAATTGGGTACATATATAATTTAAGAA [XGTACX_site2732],8.1 ± 0.2
6,AAGATACCAATGAAATGTACATATATATAAATATAA [XGTACX_site2135],8.9 ± 0.36
7,TATATATTATAAAATTGTACATATATTAAATTTTTT [XGTACX_site5852],8.32 ± 0.46
8,TAACTAATATATAAAACACACATCATAAAAATATAA [CACACA_site768],8.97 ± 0.45
9,TTTTGTTGAAAAGTAAGATATTCCAACATGTTTTTA [CACACA_negctrl_site391],8.52 ± 0.43
10,AGCAAAACATAAAATAGTACACATTTAACAAAAAAA [XGTACX_site2921],8.88 ± 0.57
11,AAAAGAACAATGAAGTGTACTAATAATTATTTATGT [XGTACX_site6649],8.88 ± 0.36
12,TTTTATCATCTTTTTACATTATGTATAAATATTTTC [CACACA_negctrl_site206],8.74 ± 0.52
13,ATATAATATATTTTTGAACACACAATATATATATAT [CACACA_site9368],8.79 ± 0.3
14,ACACATAAATGAATAAATAAATAAATATAAATATAA [CACACA_negctrl_site1784],8.89 ± 0.47
15,ATATCATTTTCCTGCACACATAAATTTATATAATAT [CACACA_site1048],9.21 ± 0.32
16,AAAATAAAAGAATAAAAATATGAAACTTTTTTAAAA [GTGCAC_negctrl_site348],8.31 ± 0.61
17,AACGTGTGGAGAATTATAAATGAGTAAAAAATATAT [XGTACX_negctrl_site562],9.04 ± 0.5
18,GGGGGGAGGGTGAATACACACGTAATAATCATAAAC [CACACA_site8502],9.93 ± 0.28
19,ATTAAATAAAAAAACACACACATATATACCTATATA [CACACA_site5837],9.41 ± 0.3
20,AATAAAACATAATAATGTACTCAAAGGTTTAACTTG [XGTACX_site4711],8.71 ± 0.49
21,CAAAACATTTTATCTACACACATATATAAATAAATA [CACACA_site3220],8.88 ± 0.38
22,AAAAATGAAAGTAAGACATGCATGGAATTTTTTTTA [TGCATGCA_site347],8.95 ± 0.36

row,Sequence,gcPBM binding intensity (ln)
1,TTTTTTTTTTATGAAAGTACATATGAAAAATACGAA [XGTACX_site3451],8.18 ± 0.44
2,ATATATGTGTATGTATGTACTTATATTTTTTTTTAT [XGTACX_site1733],8.88 ± 0.49
3,GCAAATCAATTTTTTTTTAAAACTCATTTTTTCGTT [CACACA_negctrl_site1136],8.69 ± 0.52
4,TCCGTTATATATGTGTGTACATATAATATATCCTCA [XGTACX_site2588],9.11 ± 0.4
5,TTCATACATATTTGAAGTACATTTAAAAATGTCCTT [XGTACX_site747],8.55 ± 0.53
6,TCCAATATATTTATGAGTACTTATAAATTATACGTT [XGTACX_site742],8.81 ± 0.41
7,GAAGTAATTTCATATACACACATATACATACATACA [CACACA_site6753],9.13 ± 0.38
8,ATATATATATATGTATGTACGTATGTATTTACTGCT [XGTACX_site3839],9.57 ± 0.2
9,ATTGTGTTAATAAAATGTACATTTTCTCTACATTAA [XGTACX_site2766],8.85 ± 0.38
10,TATTTATAATTATAATAATATATATATATATATATA [TGCATGCA_negctrl_site173],8.6 ± 0.3
11,TTTGAATAAAAACAAAAAATTAAATTAAATTAAATA [CACACA_negctrl_site312],8.12 ± 0.45
12,ATTAAAAAAAATATATATGTATAAAACAAGCAAAAT [XGTACX_negctrl_site474],8.89 ± 0.47
13,ATAAAAAAAAATAACACACAGACATAAGAATAAATA [CACACA_site4162],9.25 ± 0.44
14,TAGCCATTTTTATATTGTACTTATATAATCACATTT [XGTACX_site4407],8.8 ± 0.45
15,ATATAAGAAAAGCACACACACACAAAAAAAAAAAAA [CACACA_site2827],10.1 ± 0.42
16,GACCACTTTAGGATTTGTACACATATTATATATGCA [XGTACX_site6579],9.05 ± 0.41
17,ATTAAAAAAATTGGCACACATAAAAATATATAAAAA [CACACA_site2748],8.86 ± 0.49
18,AACAGATATGAATAGAAAAAAAAAAATGGCCCATAT [TGCATGCA_negctrl_site443],8.65 ± 0.47
19,GTTTTTAATGTTTTGACATGCAATATTAAAAATAAT [TGCATGCA_site174],8.37 ± 0.43
20,TGAAAAAAAAAATACACACACGAGTTGTTATACATA [CACACA_site7486],9.09 ± 0.43
21,TTTTGATAGAAGTGTTCTAGGAATTCAACTGTAATA [GTGCAC_negctrl_site585],8.44 ± 0.46
22,TATAATGATAATAATAGTACACATTAGAACGGGAGG [XGTACX_site2563],9.03 ± 0.42

row,Sequence,gcPBM binding intensity (ln)
1,TATAATAATAAAAACACACACGTTGATTGTATTAGC [CACACA_site5336],9.13 ± 0.33
2,TCTTTTTTTTATTATATCATTGAAATGTTAAAACGA [XGTACX_negctrl_site473],8.27 ± 0.41
3,CCTATTATTTCTAAAACACACAAAAATATAAAAGAA [CACACA_site2708],8.67 ± 0.49
4,ATAATATTATTTAAAAGTACTAACAAAAGAATATTA [XGTACX_site4989],8.45 ± 0.52
5,GCAATTTTTTTTAAGAGTACTAATATATTATAGTGG [XGTACX_site7316],8.45 ± 0.34
6,TTTTTTTAATAGTGTGCACACAATATACAGAAAAAA [CACACA_site8399],9.17 ± 0.44
7,AAAAAGTGACTCCTTACACACTTTACATAATTTAGG [CACACA_site8176],8.82 ± 0.4
8,ATATACATATATATATGTACTTATTTATTTATTTAT [XGTACX_site2532],8.95 ± 0.45
9,ATATATATATATATATGTACATATGTTTGTTTCCGC [XGTACX_site5167],9.97 ± 0.24
10,TTTTTTTTCATTTTATGTACACATAATTTAATATAT [XGTACX_site5768],8.74 ± 0.67
11,CATACATACATACATACATGCATACATACATACATA [TGCATGCA_site218],9.19 ± 0.28
12,CATAATTTAAAAAAGGTGCAAAATGGATAATATATA [GTGCAC_site9657],8.96 ± 0.47
13,TAATTTCTTTAGGGGGTGCTTTTATAGTTTTTATTA,9.615 ± 0.05
14,CTGTCTGCAGATATGGTGCATTTGTAAGATCTTACA [GTGCAC_site9870],8.88 ± 0.45
15,TTCATAAAATGTGTCTGTACGTAAATGTATTACACT [XGTACX_site3179],8.96 ± 0.4
16,TTTATATTTATGATGGGTACACAAAATTTTACCCAT [XGTACX_site1504],8.67 ± 0.47
17,AATGTATAAATCCATACACACATAAATTTTAATAAT [CACACA_site2363],9.09 ± 0.42
18,AAAAAAATTAAAAATTAAAATTAAAAATAATATATA [GTGCAC_negctrl_site466],8.22 ± 0.68
19,TATATATATGAACAATGTACGTATAATATTTTTATT [XGTACX_site7561],8.72 ± 0.44
20,GATCTATACTATAATACACACATTTGATGAATGTAA [CACACA_site6163],8.86 ± 0.29
21,AACATTATATATTGCAGTACTCCCATATGTTGATAA [XGTACX_site3119],8.82 ± 0.39
22,ATATATATATATATATGTACACATAAAAAGAAAGAA [XGTACX_site1603],9.27 ± 0.42

row,Sequence,gcPBM binding intensity (ln)
1,TTTAGTTGTGAGAATTGTACATATTTTCCTTTTACC [XGTACX_site7291],8.69 ± 0.52
2,TATATACCTATATACACACACATATATTATAGATAT [CACACA_site6266],9.32 ± 0.34
3,ATTAATAAAAAATTTTAAAAAATAAATAAAATAAAA [TGCATGCA_negctrl_site113],8.25 ± 0.69
4,ATAATAAATAAAATAACACACATATATAAATATATA [CACACA_site170],8.91 ± 0.42
5,ATTTTTATTCAGTTCACACACGCTTTAATATTATAT [CACACA_site3465],9.29 ± 0.38
6,ATATATATTTAACAATGTACTTATTCAGAGAATAAT [XGTACX_site574],8.52 ± 0.45
7,AAAATATTTTTATAATGTACATATAGTTGTATTTGT [XGTACX_site8724],8.81 ± 0.39
8,AAGTTGAAATAATGTGCACACATTTTTTTTTTTTTT [CACACA_site3368],9.02 ± 0.26
9,CCCTTAATATAAAGCACACATATATATAATATATAT [CACACA_site4439],8.94 ± 0.33
10,AAAAAAAAAAAAAAAAAAAACGAAAAACATCAAAGA [TGCATGCA_negctrl_site78],8.63 ± 0.52
11,TATCCTTATATTTGCACACACACACTAGAAAATGAA [CACACA_site4714],9.68 ± 0.25
12,ATTTATACTTATGTATGTACATATATACATATGTAT [XGTACX_site3979],9.14 ± 0.3
13,ACTAAAAAATATATATGTACATAATAATATATTATT [XGTACX_site1260],8.69 ± 0.38
14,ATAATAAAATAACTAGTGCATATTCAAAGGATTCAG,8.98 ± 0.42
15,ATTATGTGTCCACATGTAAGCTATCTTACTTATATA [CACACA_negctrl_site1227],8.9 ± 0.45
16,CATATTTGTGGACACACACACATATTTATATATATA [CACACA_site5887],9.39 ± 0.34
17,TACAAAAAAATAAAAAAAATTAAATAAATAAATATA [CACACA_negctrl_site45],8.38 ± 0.56
18,ATAGTTACACAATGGTGTACAAGTCAATATATTTCT [XGTACX_site4614],8.81 ± 0.42
19,TAAAAAAAAAAAAAAAGTACACACATACATATAAAT [XGTACX_site3752],9.12 ± 0.39
20,ATTTTTTTTTTTTTATGTACATATAGGTGCAAATCA [XGTACX_site6748],8.55 ± 0.32
21,ACAATGTCATTTGCTAGTACGCATATTGGTTGTAAA [XGTACX_site8924],8.91 ± 0.31
22,TATTTTTTTTTTTTTTTTTTTTTAAAACATATCAAT [CACACA_negctrl_site925],8.35 ± 0.49
